# Laboratory results from the supplement of paper PMC10441789.
# The list shows a part of the results. Antibody binding of pooled human sera (four to six donors per pool; dilution not stated) to peptides of the Trypanosoma cruzi antigen TSSA on microarrays. Quantile-normalised fluorescence in arbitrary units, mean of duplicate arrays; higher = more binding. No active / inactive call. The uninfected pools are read here as the healthy donors of the same country. The strongest signals lie near the top of the scale (about 60,000).
# Columns and labels:
# Assay in all cases: antibody binding signal (normalised fluorescence) (arbitrary fluorescence units); higher = stronger serum antibody binding to peptide
# [1] = tested on: pooled sera of chronic Chagas disease patients, Argentina
# Procedure: (§1)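 Microarray of overlapping 15-residue peptides of the four Trypanosoma cruzi TSSA reference variants and 8- to 13-residue peptides of TSSAII 24-62, probed with one serum pool per country.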
# [2] = tested on: pooled sera of chronic Chagas disease patients, Bolivia
# Procedure: as §1
# [3] = tested on: pooled sera of chronic Chagas disease patients, Brazil
# Procedure: as §1
# [4] = tested on: pooled sera of chronic Chagas disease patients, Colombia
# Procedure: as §1
# [5] = tested on: pooled sera of chronic Chagas disease patients, Mexico
# Procedure: as §1
# [6] = tested on: pooled sera of chronic Chagas disease patients, USA
# Procedure: as §1
# [7] = tested on: pooled sera of uninfected people, Argentina
# Procedure: as §1
# [8] = tested on: pooled sera of uninfected people, Bolivia
# Procedure: as §1
# [9] = tested on: pooled sera of uninfected people, Colombia
# Procedure: as §1
# [10] = tested on: pooled sera of uninfected people, Mexico
# Procedure: as §1
# [11] = tested on: pooled sera of uninfected people, USA
# Procedure: as §1
Sequence,antibody binding signal [1],antibody binding signal [2],antibody binding signal [3],antibody binding signal [4],antibody binding signal [5],antibody binding signal [6],antibody binding signal [7],antibody binding signal [8],antibody binding signal [9],antibody binding signal [10],antibody binding signal [11]
ASSGEAEASSNKNDG,215,1690,3760,705,1380,1070,207,448,154,2480,564
STPPSGTENKP,50300,47200,49900,282,9010,41900,8780,837,789,620,749
ANGGSTSSTPPSG,1440,4360,1280,2330,1310,2350,312,501,189,451,351
TSSTPPSGTENKP,56100,47700,51300,349,8590,39200,8950,895,797,575,804
